{"source": "the supplement of paper PMC11417369", "note": "This is one part of the list."}
{"test_system": "PfHDP1 homeodomain (GST-tagged)", "assay": "gcPBM binding intensity (ln(normalized median fluorescence intensity)); higher = stronger DNA binding", "in_short": "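Probes on an Agilent 4 × 180k array were primer-extended, double-stranded and 36 bp long, taken from intergenic genomic regions, with negative controls added. GST-tagged P. falciparum DNA-binding domains from E. coli, about 25 μg on average, were applied to the array for 1 h in 1× PBS containing 1% milk, 0.2 mg/ml BSA, 0.5% salmon testes DNA and 0.03% Triton X-100. Binding intensity, obtained after Alexa488 anti-GST antibody detection and a 488 nm scan, is the highest Masliner-normalised natural-log median intensity across replicate spots of either probe orientation.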"}
{"sequence": "TCTCCACCTCTCTTGGTGCGTTATACCCTCGAGGCT", "gcPBM binding intensity (ln)": 7.09}
{"sequence": "TCAGATATATATATATAAATATATATTTTGAAATGT [CACACA_negctrl_site686]", "gcPBM binding intensity (ln)": 6.55}
{"sequence": "TAGTATCCAAGAAAAAGTACTTATTTTAATTTTTTA [XGTACX_site6243]", "gcPBM binding intensity (ln)": 5.85}
{"sequence": "TCATTTAAGTAGACGCGTACGGAAATTACGAATCCT [XGTACX_site144]", "gcPBM binding intensity (ln)": 6.16}
{"sequence": "AATATTTATAAAGACACACAAACAAAAAGGATAAAA [CACACA_site2985]", "gcPBM binding intensity (ln)": 7.54}
{"sequence": "AAAAATAAAGGATATACACACTAATTATATATATAT [CACACA_site5550]", "gcPBM binding intensity (ln)": 8.49}
{"sequence": "AAAGTGGCCATATATTTTTTTTTTTTTTTCCTTATT [CACACA_negctrl_site485]", "gcPBM binding intensity (ln)": 5.91}
{"sequence": "ATTATTATATTTATATGTACATAGAAAAAATTAAAT [XGTACX_site2058]", "gcPBM binding intensity (ln)": 6.47}
{"sequence": "GTGTTAACTATTATGAGTACTTATGTATTAATTCAT [XGTACX_site7767]", "gcPBM binding intensity (ln)": 6.74}
{"sequence": "TTGCTTATTAAATGGGGTACATTATATATATATATA [XGTACX_site2515]", "gcPBM binding intensity (ln)": 8.97}
{"sequence": "GTTTACTAATATTGCACACGAATATGAAAAAGAGAA [CACACA_site2897]", "gcPBM binding intensity (ln)": 10.6}
{"sequence": "TTTCTAATTTATATCACACACATATATTTATAGTAA [CACACA_site6280]", "gcPBM binding intensity (ln)": 6.53}
{"sequence": "TTCAGAGAATAAAAATGTACATATAATATTTTAAAA [XGTACX_site577]", "gcPBM binding intensity (ln)": 6.39}
{"sequence": "ATGTAGGTTAATTATTGTACGTAGGGGGTGTATATT [XGTACX_site3973]", "gcPBM binding intensity (ln)": 8.01}
{"sequence": "CTCTTGTCATTTTGCACACACACATGTATAGGTTAT [CACACA_site3057]", "gcPBM binding intensity (ln)": 11.1}
{"sequence": "TAAATTTGTGGGATTTCACACAGGTTTATTTACATT [CACACA_site5455]", "gcPBM binding intensity (ln)": 5.97}
{"sequence": "TATTACCCATATTATACACACATATATTATATATAT [CACACA_site1567]", "gcPBM binding intensity (ln)": 7.08}
{"sequence": "CTGTTTTACTTTAGTAGTACAATAAAAATATAAAAA [XGTACX_site2934]", "gcPBM binding intensity (ln)": 6.23}
{"sequence": "AAAAAAAAAAAACATACACACAAATATATACATACA [CACACA_site4011]", "gcPBM binding intensity (ln)": 6.44}
{"sequence": "TAATTTTATATTAAAAGTACATAATAAAAACTATAA [XGTACX_site8779]", "gcPBM binding intensity (ln)": 6.26}
{"sequence": "AAGAAATATATATATATATATATATATATATATGTA [TGCATGCA_negctrl_site442]", "gcPBM binding intensity (ln)": 7.43}
{"sequence": "TACATACACGGACACACACACATATATATATATATA [CACACA_site5883]", "gcPBM binding intensity (ln)": 9.41}
{"sequence": "CACTAATATATATACAGTACATAATAAAGTATATAA [XGTACX_site6875]", "gcPBM binding intensity (ln)": 6.16}
{"sequence": "TGATGATATAAAAACACACACATATAATATAATACT [CACACA_site1208]", "gcPBM binding intensity (ln)": 6.78}
{"sequence": "AGAGCATAATAAAACACACACATACATACAGATATA [CACACA_site4671]", "gcPBM binding intensity (ln)": 8.56}
{"sequence": "TTTAAAAACAAATATTGTACAAATTAAAATATATCA [XGTACX_site7220]", "gcPBM binding intensity (ln)": 6.81}
{"sequence": "CATATAGTATAAATTTGTACATAAATATATATATAT [XGTACX_site7477]", "gcPBM binding intensity (ln)": 8.91}
{"sequence": "AGAGTATATAAAGTAACACACAATAAAATAAAATAA [CACACA_site2328]", "gcPBM binding intensity (ln)": 6.71}
{"sequence": "AAATGATGCATTTGTCATTAAAATTGTGAAATATTA [CACACA_negctrl_site231]", "gcPBM binding intensity (ln)": 6.58}
{"sequence": "AAAAAAAAAAAAAAAAGTACATATATATATAATTAT [XGTACX_site7836]", "gcPBM binding intensity (ln)": 6.43}
{"sequence": "ATAATATCTTCTTTTTTTTTTTTTTTTTTTTTTTTT [CACACA_negctrl_site1005]", "gcPBM binding intensity (ln)": 7.01}
{"sequence": "TATAATAAAATATGTACACACATACAGACATATATA [CACACA_site6693]", "gcPBM binding intensity (ln)": 6.6}
{"sequence": "TAATTAAGATGATAAAAATTGAAAAAACAATTTTAA [CACACA_negctrl_site658]", "gcPBM binding intensity (ln)": 5.68}
{"sequence": "ATATATATATAATGTGTACACACATATGTATTTATA [CACACA_site8170]", "gcPBM binding intensity (ln)": 8.5}
{"sequence": "TAAGAAATAAATAGTACACACATAGACACACGCACA [CACACA_site6821]", "gcPBM binding intensity (ln)": 7.13}
{"sequence": "AATATAACTTAGAATTGTACATAAAAAAAAATATAT [XGTACX_site3313]", "gcPBM binding intensity (ln)": 6.49}
{"sequence": "TACCTAATATGTTATACACACATTATAAGTACATAT [CACACA_site7206]", "gcPBM binding intensity (ln)": 7.02}
{"sequence": "GTGTGATGGTACAATATACACACTTAAAAAAAAAAA [CACACA_site8769]", "gcPBM binding intensity (ln)": 6.33}
{"sequence": "AGTTATATGGTTAATACACACAACAAATGTTTCTTC [CACACA_site6642]", "gcPBM binding intensity (ln)": 6.58}
{"sequence": "AAAAAATATATTTGCACACTCAAAAAAAAAAAAAAA [CACACA_site859]", "gcPBM binding intensity (ln)": 10.3}
{"sequence": "ATACATAAAATTAAAACACACATTTTATTAAATACG [CACACA_site2167]", "gcPBM binding intensity (ln)": 6.44}
{"sequence": "ATACATATATATATATGTACACATAAACATGAGTGA [XGTACX_site3200]", "gcPBM binding intensity (ln)": 6.62}
{"sequence": "TAATGGAAACCATTTATTTTCTGCAATATATTTTTT [CACACA_negctrl_site1653]", "gcPBM binding intensity (ln)": 5.62}
{"sequence": "TTCAAAAAATAAAATAATAATATATATATAAATATA [XGTACX_negctrl_site84]", "gcPBM binding intensity (ln)": 6.32}
